Several values for one entry are separate records, joined by “and”; a condition that tells them apart may be missing. Equal entries are not always repeated. In all, about 410,000 compounds went through this assay and about 6,400 (1.6%) were called active. The shares of active, inactive and inconclusive entries below differ from those in the screen. Calls follow the shape of the dose curve; as a rule, active = well fitted inhibition curve with a large enough effect; inconclusive = small, poorly fitted or top-dose-only effect; inactive = no such curve, though single readings can be large or run the other way. A potency beside an inconclusive call is a rough fit, not a confirmed value.
molecular target: Glucagon-like peptide 1 receptor (Homo sapiens) (UniProt P43220); assay: qHTS of GLP-1 Receptor Inverse Agonists (Inhibition Mode); settings: HEK293 GLP-1R CRE-luciferase, luminescence, 24 h, GLP-1R form is constitutively active; series mostly up to 38.3 µM; also: nearly all actives have a fitted effect of over 55% in size
Method in brief: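 Using stably transfected HEK293 (constitutively active GLP-1R, cAMP-luciferase reporter), compounds were incubated 24 hr and luciferase measured by luminescence.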
Potency is read from the fitted curve at half-maximal effect; tags tell the direction and shape of the fitted curve.

Sequence of UniProt P43220 (P43220 whole entry, looked up): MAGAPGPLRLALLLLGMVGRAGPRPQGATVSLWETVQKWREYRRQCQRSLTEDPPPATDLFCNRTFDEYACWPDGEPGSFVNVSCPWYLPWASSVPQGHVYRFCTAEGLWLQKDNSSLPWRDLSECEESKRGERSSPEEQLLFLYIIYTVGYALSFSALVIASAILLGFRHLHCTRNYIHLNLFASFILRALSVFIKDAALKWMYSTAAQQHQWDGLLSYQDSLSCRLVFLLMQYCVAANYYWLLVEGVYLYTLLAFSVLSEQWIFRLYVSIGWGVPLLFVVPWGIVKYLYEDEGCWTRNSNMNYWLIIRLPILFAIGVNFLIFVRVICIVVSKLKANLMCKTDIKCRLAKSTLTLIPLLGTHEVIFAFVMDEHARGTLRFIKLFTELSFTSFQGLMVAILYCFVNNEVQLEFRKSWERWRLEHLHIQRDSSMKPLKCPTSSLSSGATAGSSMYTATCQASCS

Structure (SMILES) | Potency
COc1ccc(N2CCN(C(c3cccs3)C(C)NC(=O)C(=O)N3CCCC3)CC2)cc1 (centres undefined) | inconclusive: 7.94 µM [inhibitor, partial curve, poor fit]
O=C(NCc1ccc2c(c1)OCO2)c1nc(S(=O)(=O)Cc2ccccc2)ncc1Cl | inconclusive: 22.4 µM [inhibitor, single point]
O=C(Nc1cnn(Cc2ccc(F)cc2)c1)c1noc2c1CCCC2 | inconclusive: 0.794 µM [inhibitor, full curve, poor fit]
CCN(CC)c1ccc(/C=N/Nc2nc(C)cc(C)n2)c(O)c1 | inconclusive: 28.2 µM [inhibitor, single point]
CC1Sc2ccc(S(=O)(=O)N3CCN(c4cccc(Cl)c4)CC3)cc2NC1=O (centres undefined) | inconclusive: 28.2 µM [inhibitor, single point]
CCN(CC)C(=O)C1=C(C)N(Cc2ccc(C(C)(C)C)cc2)C(=O)C(CC(=O)NCC2CCCCC2)C1 (centres undefined) | inconclusive: 20 µM [inhibitor, partial curve, poor fit]
COc1cccc(CC(=O)NC2CCCN(Cc3ccc(Cl)cc3)C2)c1 (centres undefined) | inconclusive: 31.6 µM [inhibitor, partial curve, poor fit]
CCNc1nc(NC(C)C)nc(N(C#N)CCOc2ccccc2)n1 | inconclusive: 2.51 µM [inhibitor, partial curve, poor fit]
CCN=C1S/C(=C\c2cn(CC)c3ccccc23)C(=O)N1CC | inconclusive: 11.2 µM [inhibitor, partial curve, poor fit]
COc1ccc(C2(CNC(=O)C(=O)Nc3cccc(C(F)(F)F)c3)CCCC2)cc1OC | inconclusive: 14.1 µM [inhibitor, single point]
Nc1ccccc1-c1nnn(CC(=O)N2CCCc3ccccc32)n1 | inconclusive: 28.2 µM [inhibitor, single point]
CC(C)Oc1cccc(C(=O)C2CCCN(Cc3cccn3-c3cccnc3)C2)c1 (centres undefined) | inconclusive: 22.4 µM [inhibitor, partial curve, poor fit]
CC(C)(C)c1ccc(/C=N/NC(=O)c2ccccn2)cc1 | inconclusive: 7.08 µM [inhibitor, partial curve, poor fit]
Cc1ccc(S(=O)(=O)Nc2cccc(-c3ccc(N4CCCCC4)nn3)c2)s1 | inconclusive: 14.1 µM [inhibitor, single point]
O=C(Nc1ccncc1)c1ccc(Cl)c(S(=O)(=O)N2CCCCC2)c1 | inconclusive: 31.6 µM [inhibitor, partial curve, poor fit]
CC(=O)c1cccc(NC(=O)c2nc(-c3ccc(C)cc3)n3c2CCCCC3)c1 | inconclusive: 11.2 µM [inhibitor, partial curve, poor fit]
O=C(NCCc1ccc(Cl)cc1)c1ccc(CSCc2ccccc2Cl)o1 | inconclusive: 12.6 µM [inhibitor, single point]
CN(C1=C(N2CCCCC2)C(=O)c2ccccc2C1=O)c1ccccc1 | inconclusive: 14.1 µM [inhibitor, partial curve, poor fit]
CC(C)N(Cc1nc(-c2ccccc2)no1)C(=O)COc1ccccc1 | inconclusive: 10 µM [inhibitor, single point]
Cc1ccc(S(=O)(=O)NCCCC(=O)O)cc1 | inactive

Structure (SMILES) | Potency
COC(=O)C[C@@H]1C=C[C@@H](NC(=O)c2ccc3c(c2)OCO3)[C@@H](CO)O1 | inactive
Cc1cccc(NC(=O)c2ccc3c(=O)n(CC4CCCO4)c(=S)[nH]c3c2)c1 (centres undefined) | inconclusive: 6.31 µM [inhibitor, partial curve, poor fit]
Cc1ccc(NC(=O)c2cccc(S(=O)(=O)N3CCCCC3)c2)cc1 | inconclusive: 11.2 µM [inhibitor, partial curve, poor fit]
CC1CCN(CCCNC(=O)c2cc3c(s2)-c2ccccc2OC3)CC1 | inconclusive: 2.24 µM [inhibitor, full curve, poor fit]
Nc1ccccc1Nc1cc(-c2ccccc2)nn1-c1ccccc1 | inconclusive: 28.2 µM [inhibitor, single point]
CCC(NC(=O)c1cc(COc2ccc(C)nc2)on1)c1ccc(C)cc1 (centres undefined) | inconclusive: 11.2 µM [inhibitor, partial curve, poor fit]
CCOc1ccccc1C(=O)NCc1ccc2c(c1)CCN2C(C)=O | inactive
CCCNC(=O)C1(C)CCCN(C(=O)c2cccc(OC(C)=O)c2C)C1 (centres undefined) | inactive
COC(=O)c1c(NC(=O)c2c(-c3ccccc3Cl)noc2C)sc2c1CCC2 | inconclusive: 15.8 µM [inhibitor, partial curve, poor fit]
Cc1ccc(-c2cnc(NCc3cc4c(cc3[N+](=O)[O-])OCO4)n2C)cc1C | inconclusive: 8.91 µM [inhibitor, partial curve, poor fit]
CN1CCN(CCCNC(=O)c2ccc(/C=C3/Sc4ccccc4N(Cc4cccc(Cl)c4)C3=O)cc2)CC1 | inconclusive: 12.6 µM [inhibitor, single point]
O=C(Nc1cccc(S(=O)(=O)C(F)F)c1)c1ccc(S(=O)(=O)N2CCCCC2)cc1 | inconclusive: 14.1 µM [inhibitor, partial curve, poor fit]
COc1ccc(-c2ccc(-c3nc4ccc(C)cn4c3NC3CCCCC3)cc2OC)cc1 | inconclusive: 7.08 µM [inhibitor, partial curve, poor fit] and inconclusive: 2.82 µM [inhibitor, full curve]
COc1ccccc1CNc1ncnc2c1c(-c1ccccc1)cn2-c1ccc(Br)cc1 | inconclusive: 7.94 µM [inhibitor, partial curve, poor fit]
CC(C)(C)OC(=O)C1C(=O)CC(C)(O)C(C(=O)OC(C)(C)C)C1c1ccco1 (centres undefined) | inconclusive: 20 µM [inhibitor, single point]
CCN(CC)c1ccc(NC(=O)Cn2c3ncccc3c(=O)n2-c2ccccc2)c(C)c1 | inactive
O=C(CN1CCN(C(=O)c2cc(C3CC3)nn2-c2ccccc2)CC1)Nc1ccc(F)cc1 | inconclusive: 10 µM [inhibitor, partial curve, poor fit]
CCOC(=O)c1ccc(Nc2ccc(C(C)=O)cc2)cc1 | inconclusive: 11.2 µM [inhibitor, single point]
COC(=O)c1cc(S(=O)(=O)N2CCN(c3cc(Cl)ccc3C)CC2)c[nH]1 | inconclusive: 12.6 µM [inhibitor, single point]
Nc1ccc2ccccc2c1N=Nc1ccccc1 | inconclusive: 11.2 µM [inhibitor, partial curve, poor fit]

Structure (SMILES) | Potency
CCc1cc(C(=O)Nc2ncccc2O)sc1C | inconclusive: 5.62 µM [inhibitor, partial curve, poor fit]
Cc1ccc(NC(=O)CSc2nc(N)c3c4c(sc3n2)CSC(C)(C)C4)cc1 | inconclusive: 11.2 µM [inhibitor, partial curve, poor fit]
CCCn1nc(C(=O)NC2CCCc3ccccc32)c2ccccc2c1=O (centres undefined) | inconclusive: 11.2 µM [inhibitor, partial curve, poor fit]
Cc1cc(C)c2oc(C(=O)Nc3c(C(=O)c4ccccc4)oc4ccccc34)cc(=O)c2c1 | inactive
COc1ccc(C(=O)NN/C(C)=C/C(=O)c2ccccc2)cc1 | inconclusive: 12.6 µM [inhibitor, single point]
O=S(=O)(NCC(c1ccco1)N1CCOCC1)c1ccc(F)cc1 (centres undefined) | inactive
COc1ccc(-n2nnnc2C(c2cc3ccccc3o2)N2CCN(C/C=C/c3ccccc3)CC2)cc1 (centres undefined) | inconclusive: 8.91 µM [inhibitor, partial curve, poor fit]
O=C(NCCc1ccccc1)c1cccs1 | inconclusive: 12.6 µM [inhibitor, single point]
Cc1ccc(N2C(=O)CC2(C#N)c2ccc(OCc3ccccc3)cc2)cc1 (centres undefined) | inconclusive: 28.2 µM [inhibitor, single point]
O=C(Nc1ccc(Br)cn1)c1ccc(Cl)s1 | inconclusive: 15.8 µM [inhibitor, single point]
Cc1c(C(=O)N2CCN(C/C=C/c3ccccc3)CC2)oc2c(F)cccc12 | inconclusive: 11.2 µM [inhibitor, partial curve, poor fit]
Cc1occc1-c1nnc(SCC(=O)NC2CCCC2)n1-c1ccccc1 | active: 11.2 µM
CCN(c1ccccc1)S(=O)(=O)c1cccc(C(=O)N(C)CCOc2ccccc2)c1 | inconclusive: 11.2 µM [inhibitor, partial curve]
N#Cc1c(NCc2ccccc2)ccnc1NCc1cccnc1 | inconclusive: 28.2 µM [inhibitor, single point]
COc1ccc(Cl)cc1NC(=O)CSc1nnc2[nH]c(=O)cc(C)n12 | inactive
CCCCN1C(=O)C(CC(=O)NCc2cccc3ccccc23)CC(C(=O)N(C(C)C)C(C)C)=C1C (centres undefined) | inconclusive: 28.2 µM [inhibitor, single point]
CCCc1c(C(=O)Nc2ccc(N3CCOCC3)cc2)cnn1-c1ccccc1 | inconclusive: 1.26 µM [inhibitor, full curve, poor fit]
CC1CN(c2ccccc2)CCN1Cc1nc(Cc2ccccc2)no1 (centres undefined) | inconclusive: 12.6 µM [inhibitor, partial curve, poor fit]
CC1CC(C)CN(C(=O)COC(=O)c2cccc(S(=O)(=O)N(C)c3ccccc3)c2)C1 (centres undefined) | inconclusive: 28.2 µM [inhibitor, single point]

— PubChem BioAssay AID624417 (National Center for Advancing Translational Sciences (NCATS), 2012)
